The supplement of paper PMC10037445
± gives the standard deviation of the averaged measurements. In all, about 2,900 compounds were measured (“IRF Lucia reporter activity, fold change vs agonist alone”: median about 0.9, highest 2% from about 2.8 on). The list shows a part of the results.

How the values were obtained:
RAW-Dual [1] = assay: IRF Lucia reporter activity, fold change vs agonist alone; higher = enhanced IRF activity; settings: agonist: MPLA (TLR4) […]
Method in brief: (§1)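 Library stock was pin-tooled at 50 nL into 384-well plates of RAW-Dual macrophages (50,000 cells/well, DMEM), followed 1 h later by a PRR agonist, and the cells were kept at 37 °C, 5% CO2. Supernatant collected after 20 hours was read for IRF by QuantiLuc luminescence and for NF-κB by QuantiBlue absorbance at 620 nm. Reporter activity is fold change over agonist-alone wells, and a well counted as cytotoxic when its IncuCyte confluency was below 70% of agonist controls in both mask sets.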

RAW-Dual [2] = assay: IRF Lucia reporter activity, fold change vs agonist alone; cytotoxicity flag (confluency mask): not cytotoxic; higher = enhanced IRF activity
Method in brief: as §1

RAW-Dual [3] = assay: IRF Lucia reporter activity, fold change vs agonist alone; cytotoxicity flag (confluency mask): cytotoxic (confluency <70% of control); higher = enhanced IRF activity
Method in brief: as §1

[4] = library stock concentration (final ~1000-fold dilution): 10 mM, cytotoxicity flag (confluency mask): not cytotoxic
[5] = agonist: 3'3'-cGAMP (STING) 10 ug/mL

SMILES: Cc1ccc(C(=O)C(C)CN2CCCCC2)cc1.Cl (stereo not drawn)
- IRF Lucia reporter activity (RAW-Dual [1]; [4]): 1.16

SMILES: Cc1ccc(C(=O)C(C)CN2CCCCC2)cc1.Cl (stereo not drawn) (library stock concentration (final ~1000-fold dilution): 10 mM)
- IRF Lucia reporter activity (RAW-Dual [2]; [5]): 1.07
- IRF Lucia reporter activity (RAW-Dual [2]; agonist: LPS (TLR4) 0.1 ug/mL): 1.18

SMILES: CC(C)(C)c1nc(-c2cccc(NS(=O)(=O)c3c(F)cccc3F)c2F)c(-c2ccnc(N)n2)s1.CS(=O)(=O)O
- IRF Lucia reporter activity (RAW-Dual [1]; [4]): 0.372

SMILES: CC(C)(C)c1nc(-c2cccc(NS(=O)(=O)c3c(F)cccc3F)c2F)c(-c2ccnc(N)n2)s1.CS(=O)(=O)O (library stock concentration (final ~1000-fold dilution): 10 mM)
- IRF Lucia reporter activity (RAW-Dual [2]; [5]): 0.698
- IRF Lucia reporter activity (RAW-Dual [2]; agonist: LPS (TLR4) 0.1 ug/mL): 0.755

SMILES: O=C(c1ccc(F)cc1)C1CCN(CCn2c(=O)[nH]c3ccccc3c2=O)CC1
- IRF Lucia reporter activity (RAW-Dual [1]; library stock concentration (final ~1000-fold dilution): 2 mM, cytotoxicity flag (confluency mask): not cytotoxic): 1.4

SMILES: O=C(c1ccc(F)cc1)C1CCN(CCn2c(=O)[nH]c3ccccc3c2=O)CC1 (library stock concentration (final ~1000-fold dilution): 2 mM)
- IRF Lucia reporter activity (RAW-Dual [2]; [5]): 0.999
- IRF Lucia reporter activity (RAW-Dual [2]; agonist: LPS (TLR4) 0.1 ug/mL): 0.972

SMILES: Cc1csc(-c2nnc(Nc3ccc(Oc4ncccc4-c4ccnc(N)n4)cc3)c3ccccc23)c1 (library stock concentration (final ~1000-fold dilution): 10 mM)
- IRF Lucia reporter activity (RAW-Dual [3]; [5]): 0.123
- IRF Lucia reporter activity (RAW-Dual [3]; agonist: LPS (TLR4) 0.1 ug/mL): 0.391

SMILES: Cc1csc(-c2nnc(Nc3ccc(Oc4ncccc4-c4ccnc(N)n4)cc3)c3ccccc23)c1
- IRF Lucia reporter activity (RAW-Dual [1]; library stock concentration (final ~1000-fold dilution): 10 mM, cytotoxicity flag (confluency mask): cytotoxic (confluency <70% of control)): 0.598

SMILES: CC(C)c1cccc(O)c(=O)c1 (library stock concentration (final ~1000-fold dilution): 10 mM)
- IRF Lucia reporter activity (RAW-Dual [2]; [5]): 0.82
- IRF Lucia reporter activity (RAW-Dual [2]; agonist: LPS (TLR4) 0.1 ug/mL): 1.35

SMILES: CC(O)CO.CCOc1ccc(Cc2cc(C3OC(CO)C(O)C(O)C3O)ccc2Cl)cc1.O (stereo not drawn)
- IRF Lucia reporter activity (RAW-Dual [1]; [4]): 1.05

SMILES: CC(O)CO.CCOc1ccc(Cc2cc(C3OC(CO)C(O)C(O)C3O)ccc2Cl)cc1.O (stereo not drawn) (library stock concentration (final ~1000-fold dilution): 10 mM)
- IRF Lucia reporter activity (RAW-Dual [2]; [5]): 1.07
- IRF Lucia reporter activity (RAW-Dual [2]; agonist: LPS (TLR4) 0.1 ug/mL): 1.03

SMILES: C=C1CCC2C(C)(CO)C(O)CCC2(C)C1C/C=C1/C(=O)OCC1O (stereo not drawn)
- IRF Lucia reporter activity (RAW-Dual [1]; [4]): 0.992 ± 0.32

SMILES: C=C1CCC2C(C)(CO)C(O)CCC2(C)C1C/C=C1/C(=O)OCC1O (stereo not drawn) (library stock concentration (final ~1000-fold dilution): 10 mM)
- IRF Lucia reporter activity (RAW-Dual [2]; [5]): 0.495 ± 0.16
- IRF Lucia reporter activity (RAW-Dual [2]; agonist: LPS (TLR4) 0.1 ug/mL): 0.679 ± 0.14

SMILES: CC1=C(C)C(=O)C(C(CCCCCC(=O)O)c2ccccc2)=C(C)C1=O (stereo not drawn) (library stock concentration (final ~1000-fold dilution): 10 mM)
- IRF Lucia reporter activity (RAW-Dual [2]; [5]): 0.983
- IRF Lucia reporter activity (RAW-Dual [2]; agonist: LPS (TLR4) 0.1 ug/mL): 0.953

SMILES: CC1=C(C)C(=O)C(C(CCCCCC(=O)O)c2ccccc2)=C(C)C1=O (stereo not drawn)
- IRF Lucia reporter activity (RAW-Dual [1]; [4]): 1

SMILES: CC1CCC2(C(=O)OC3OC(COC4OC(CO)C(OC5OC(C)C(O)C(O)C5O)C(O)C4O)C(O)C(O)C3O)CCC3(C)C(=CCC4C5(C)CC(O)C(O)C(C)(CO)C5CCC43C)C2C1C (stereo not drawn) (library stock concentration (final ~1000-fold dilution): 10 mM)
- IRF Lucia reporter activity (RAW-Dual [2]; [5]): 1.06
- IRF Lucia reporter activity (RAW-Dual [2]; agonist: LPS (TLR4) 0.1 ug/mL): 1.12

SMILES: CC1CCC2(C(=O)OC3OC(COC4OC(CO)C(OC5OC(C)C(O)C(O)C5O)C(O)C4O)C(O)C(O)C3O)CCC3(C)C(=CCC4C5(C)CC(O)C(O)C(C)(CO)C5CCC43C)C2C1C (stereo not drawn)
- IRF Lucia reporter activity (RAW-Dual [1]; [4]): 1.1

SMILES: CCC1/C=C(\C)CC(C)CC(OC)C2OC(O)(C(=O)C(=O)N3CCCCC3C(=O)OC(/C(C)=C/C3CCC(Cl)C(OC)C3)C(C)C(O)CC1=O)C(C)CC2OC (stereo not drawn)
- IRF Lucia reporter activity (RAW-Dual [1]; [4]): 1.02

SMILES: CCC1/C=C(\C)CC(C)CC(OC)C2OC(O)(C(=O)C(=O)N3CCCCC3C(=O)OC(/C(C)=C/C3CCC(Cl)C(OC)C3)C(C)C(O)CC1=O)C(C)CC2OC (stereo not drawn) (library stock concentration (final ~1000-fold dilution): 10 mM)
- IRF Lucia reporter activity (RAW-Dual [2]; [5]): 0.715
- IRF Lucia reporter activity (RAW-Dual [2]; agonist: LPS (TLR4) 0.1 ug/mL): 1.66

SMILES: CC(C)Oc1ccc(-c2cnc3c(-c4ccnc5ccccc45)cnn3c2)cc1 (library stock concentration (final ~1000-fold dilution): 10 mM)
- IRF Lucia reporter activity (RAW-Dual [2]; [5]): 0.915
- IRF Lucia reporter activity (RAW-Dual [2]; agonist: LPS (TLR4) 0.1 ug/mL): 1.05

SMILES: CC(C)Oc1ccc(-c2cnc3c(-c4ccnc5ccccc45)cnn3c2)cc1
- IRF Lucia reporter activity (RAW-Dual [1]; [4]): 0.837

SMILES: c1ccc2c(CCNc3ccc(Nc4ccncc4)cc3)c[nH]c2c1 (library stock concentration (final ~1000-fold dilution): 10 mM)
- IRF Lucia reporter activity (RAW-Dual [2]; [5]): 0.706
- IRF Lucia reporter activity (RAW-Dual [2]; agonist: LPS (TLR4) 0.1 ug/mL): 0.612

SMILES: c1ccc2c(CCNc3ccc(Nc4ccncc4)cc3)c[nH]c2c1
- IRF Lucia reporter activity (RAW-Dual [1]; [4]): 2.97

SMILES: Cc1cc(C(C)Nc2ccccc2C(=O)O)c2nc(N3CCOCC3)cc(=O)n2c1 (stereo not drawn)
- IRF Lucia reporter activity (RAW-Dual [1]; [4]): 0.843

SMILES: Cc1cc(C(C)Nc2ccccc2C(=O)O)c2nc(N3CCOCC3)cc(=O)n2c1 (stereo not drawn) (library stock concentration (final ~1000-fold dilution): 10 mM)
- IRF Lucia reporter activity (RAW-Dual [2]; [5]): 1
- IRF Lucia reporter activity (RAW-Dual [2]; agonist: LPS (TLR4) 0.1 ug/mL): 1.04

SMILES: COc1ccc2c(Oc3ccc(NC(=O)c4c(C)n(CC(C)(C)O)n(-c5ccccc5)c4=O)nc3)ccnc2c1 (library stock concentration (final ~1000-fold dilution): 10 mM)
- IRF Lucia reporter activity (RAW-Dual [2]; [5]): 0.275
- IRF Lucia reporter activity (RAW-Dual [2]; agonist: LPS (TLR4) 0.1 ug/mL): 0.462

SMILES: COc1ccc2c(Oc3ccc(NC(=O)c4c(C)n(CC(C)(C)O)n(-c5ccccc5)c4=O)nc3)ccnc2c1
- IRF Lucia reporter activity (RAW-Dual [1]; [4]): 0.588

SMILES: COc1c(C)cnc(Cn2cnc3c(Cl)nc(N)nc32)c1C (library stock concentration (final ~1000-fold dilution): 10 mM)
- IRF Lucia reporter activity (RAW-Dual [3]; [5]): 0.723
- IRF Lucia reporter activity (RAW-Dual [3]; agonist: LPS (TLR4) 0.1 ug/mL): 1.29
